The whole screen tested about 310,000 compounds, of which about 2,200 (0.71%) showed an effect of 50% or more. The effect is printed as a negative number. Some of the results follow.
Each compound was assayed against human ether-à-go-go-related gene (hERG) potassium channel (human, UniProt Q12809) (assay: primary screen, population patch clamp on CHO cells stably expressing hERG).
human ether-à-go-go-related gene (hERG) potassium channel, sequence (Q12809 whole entry, looked up): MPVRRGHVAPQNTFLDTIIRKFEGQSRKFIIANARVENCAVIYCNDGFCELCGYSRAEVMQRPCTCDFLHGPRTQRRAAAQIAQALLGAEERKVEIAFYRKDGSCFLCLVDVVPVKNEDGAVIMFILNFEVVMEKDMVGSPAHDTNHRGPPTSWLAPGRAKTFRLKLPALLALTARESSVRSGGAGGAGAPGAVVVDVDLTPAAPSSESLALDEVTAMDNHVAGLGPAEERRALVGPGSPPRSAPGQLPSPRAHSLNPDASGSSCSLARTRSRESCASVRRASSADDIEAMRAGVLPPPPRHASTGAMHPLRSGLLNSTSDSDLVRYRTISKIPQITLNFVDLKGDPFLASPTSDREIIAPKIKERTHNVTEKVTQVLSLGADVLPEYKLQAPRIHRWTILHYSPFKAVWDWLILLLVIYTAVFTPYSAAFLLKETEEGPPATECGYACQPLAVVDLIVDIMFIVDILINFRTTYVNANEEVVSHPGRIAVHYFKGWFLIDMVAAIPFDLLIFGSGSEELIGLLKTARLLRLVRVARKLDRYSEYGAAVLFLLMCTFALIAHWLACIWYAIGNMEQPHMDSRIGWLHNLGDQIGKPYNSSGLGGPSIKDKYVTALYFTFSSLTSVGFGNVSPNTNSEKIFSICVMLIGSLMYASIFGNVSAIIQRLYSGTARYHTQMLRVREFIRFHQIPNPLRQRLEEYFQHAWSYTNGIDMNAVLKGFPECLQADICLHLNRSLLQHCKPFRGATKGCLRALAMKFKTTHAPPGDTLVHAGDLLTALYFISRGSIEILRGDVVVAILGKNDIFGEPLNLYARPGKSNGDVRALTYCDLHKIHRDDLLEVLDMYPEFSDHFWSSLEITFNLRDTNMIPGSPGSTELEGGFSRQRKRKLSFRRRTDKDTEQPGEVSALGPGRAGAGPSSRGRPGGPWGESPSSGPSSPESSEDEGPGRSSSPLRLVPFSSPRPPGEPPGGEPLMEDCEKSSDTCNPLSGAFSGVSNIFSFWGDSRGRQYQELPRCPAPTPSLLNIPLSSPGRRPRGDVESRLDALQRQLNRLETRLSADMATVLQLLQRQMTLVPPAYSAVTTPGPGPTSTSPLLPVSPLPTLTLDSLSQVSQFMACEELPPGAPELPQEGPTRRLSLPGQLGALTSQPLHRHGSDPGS

SMILES	hERG current change (%, negative = inhibition) at 1uM [%]
Cn1cnc2c(cnn2-c2ccccc2)c1=O	17.7
CC(=O)C1=C(O)CC(c2ccccc2)CC1=NCCc1c(C)[nH]c2ccccc12 (stereo not drawn)	0.452
COc1ccc(CNC(=O)c2ccc(-c3ccccc3)cc2)cc1OC	0.0568
CSc1ccc(CNC(=O)Cn2nc(C)c3c(C)n(-c4ccc(C)cc4)nc3c2=O)cc1	-13.1
CCCCNC(=O)C1CCN(c2nc(OC)nc(OC)n2)CC1	4
COc1ccc(C(=O)Nc2nnc(-c3cccs3)s2)cc1	18.6
C=C1/C(=C\C=C2/CCC[C@]3(C)[C@@H]([C@H](C)/C=C/[C@@H](O)C4CC4)CC[C@@H]23)C[C@@H](O)C[C@@H]1O	2.71
O=C(Nc1ccc(N2CCCC2)cc1)c1cc(Br)ccc1Cl	11.1
CCCCOCCCNS(=O)(=O)c1ccccc1	13.3
CCOC(=O)COc1ccc2c(c1)C(=O)CC(C)(C)O2	5.59
Cc1ccc(C(=O)NC2CCC(C)CC2)o1 (stereo not drawn)	5.81
COc1ccc(C(O)c2nccn2Cc2ccccc2)cc1OC (stereo not drawn)	-6.06
O=C(NCc1ccc2c(c1)OCO2)c1ccc2c(=O)n(C3CCCC3)c(=O)[nH]c2c1	14.6
Cc1ccc2nsnc2c1NC(=O)c1cccnc1Cl	15.1
CSc1ccc(C2C(C(=O)c3ccco3)=C(O)C(=O)N2c2nnc(SC)s2)cc1 (stereo not drawn)	14.7
COc1ccc(Br)c(C(=O)NCC2CCCCC2)c1	4.27
O=C1[C@H]2[C@@H](c3ccc(Cl)cc3)N3C(=O)N(c4cccc(Cl)c4)C(=O)[C@@]3(Cc3ccc(Cl)cc3)[C@H]2C(=O)N1C1CCCCC1	14.6
Cl.N[C@@H]1C[C@H]1c1ccccc1	7.89
Cc1cccc(NC(=O)CNC(=O)c2cccc(S(=O)(=O)NCc3cccs3)c2)c1C	4.01
COc1cc(C(=O)N(CCN(C)C)CC2CCCN(Cc3ccccc3F)C2)ccc1C (stereo not drawn)	4.35
CC1(CC(=O)N/N=C/c2ccc(OCc3ccc(Cl)cc3Cl)cc2)OCCCO1	11.2
CC(=O)Nc1ccc(C2=NN(C)C(=NCc3ccccc3)SC2)cc1	7.52
Cc1cc(C)c(NC(=S)N2CCC(N(C)CC3CCCO3)CC2)c(C)c1 (stereo not drawn)	4.7
CCC1CCCCN1CCCNC(=O)c1ccc2c(c1)c(C)c(C)n2CC (stereo not drawn)	1.67

Reference: article PMC4336329 (PLoS ONE, 2015)
